# Test results from article PMC4336329 (PLoS ONE, 2015).
# Hit rate of the full screen: of about 310,000 compounds, about 14,000 (4.5%) showed an effect of 50% or more. Effects have a minus sign here. Some of the results follow.
# Target: human ether-à-go-go-related gene (hERG) potassium channel (human, UniProt Q12809)
# Test: primary screen, population patch clamp on CHO cells stably expressing hERG
# 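Note: peak tail current of the secondary pulse compared with the same well before compound.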
# Sequence of human ether-à-go-go-related gene (hERG) potassium channel (Q12809 whole entry, looked up): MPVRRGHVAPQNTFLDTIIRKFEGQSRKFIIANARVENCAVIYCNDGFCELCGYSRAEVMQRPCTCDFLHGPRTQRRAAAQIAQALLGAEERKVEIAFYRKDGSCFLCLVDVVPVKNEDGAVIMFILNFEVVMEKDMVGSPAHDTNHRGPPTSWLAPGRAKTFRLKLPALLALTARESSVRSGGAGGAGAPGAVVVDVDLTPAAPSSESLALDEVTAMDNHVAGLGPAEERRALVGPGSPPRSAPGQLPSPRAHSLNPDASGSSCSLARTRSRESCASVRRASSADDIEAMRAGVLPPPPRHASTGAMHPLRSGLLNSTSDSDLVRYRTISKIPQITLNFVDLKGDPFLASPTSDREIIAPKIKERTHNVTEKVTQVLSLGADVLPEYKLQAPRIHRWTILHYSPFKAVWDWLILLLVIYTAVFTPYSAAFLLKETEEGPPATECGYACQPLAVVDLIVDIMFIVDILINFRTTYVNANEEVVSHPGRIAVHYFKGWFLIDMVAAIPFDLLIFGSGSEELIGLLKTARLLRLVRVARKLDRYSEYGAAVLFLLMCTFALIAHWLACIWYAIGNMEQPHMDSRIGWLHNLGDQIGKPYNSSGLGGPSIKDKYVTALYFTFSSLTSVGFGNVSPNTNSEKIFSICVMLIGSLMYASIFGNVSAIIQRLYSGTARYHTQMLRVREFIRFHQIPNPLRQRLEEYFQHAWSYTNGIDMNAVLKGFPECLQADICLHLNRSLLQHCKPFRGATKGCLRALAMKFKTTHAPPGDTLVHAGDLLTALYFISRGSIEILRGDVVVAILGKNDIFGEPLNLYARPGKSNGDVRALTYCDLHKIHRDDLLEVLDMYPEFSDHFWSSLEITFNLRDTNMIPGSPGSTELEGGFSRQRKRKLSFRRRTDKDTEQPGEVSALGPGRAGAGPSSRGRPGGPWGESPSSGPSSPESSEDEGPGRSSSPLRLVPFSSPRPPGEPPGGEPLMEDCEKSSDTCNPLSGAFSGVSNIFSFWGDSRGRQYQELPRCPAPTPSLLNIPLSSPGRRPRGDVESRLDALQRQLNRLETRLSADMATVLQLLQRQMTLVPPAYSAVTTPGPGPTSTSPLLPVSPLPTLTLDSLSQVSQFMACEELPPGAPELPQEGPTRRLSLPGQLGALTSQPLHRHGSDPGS
row,SMILES,"hERG current change (%, negative = inhibition) at 10uM [%]"
1,COc1ccc(-c2nn(-c3ccccc3C)cc2CNC(C)Cn2cncn2)cc1F (centres unmarked),-5.1
2,Cc1cc(F)ccc1NCc1cccnc1,16
3,CCOc1ncccc1C(=O)OCC(=O)Nc1ccc(C(C)C)cc1,14.2
4,COC(=O)c1ccc(CS(=O)(=O)c2ccc(C)cc2)cc1,13.8
5,COc1ccc(C2CC(c3ccccc3)=NN2c2ccc(Cl)c(C(=O)O)c2)cc1 (centres unmarked),17
6,CNC(=O)CSc1nnc(-c2ccc3c(c2)OCO3)n1C,15.7
7,C=CCSc1nc2ccccc2n1S(=O)(=O)c1ccc(Cl)cc1,1.68
8,CC(=O)c1ccc(OCC(O)CN2CCC(C)CC2)cc1.Cl (centres unmarked),-31.6
9,Cc1ccc(S(=O)(=O)NC2(C(F)(F)F)NC(=O)N(c3ccc(F)cc3)C2=O)cc1 (centres unmarked),9.68
10,CC1=NOC(=O)/C1=C/c1ccc(-c2ccc(Cl)cc2)o1,17.2
11,O=C(c1cccnc1)C1Cc2ccccc2C1=O (centres unmarked),15.3
12,CCN1C(=O)C(=C2C=C(C)N(Cc3ccco3)C(C)=C2)C(=O)N(CC)C1=S,-35
13,COc1cccc(CC2(CO)CCCN(S(=O)(=O)N(C)C)C2)c1 (centres unmarked),42.4
14,CCNC(=S)N1CCN(Cc2ccc3c(c2)OCO3)CC1,18
15,Cc1ccc(SCc2cc(=O)n3[nH]cnc3n2)cc1,-0.82
16,CCSc1nc2ccc(OC)cc2cc1C#N,-2.53
17,CCOC(=O)C1=C(C)NC(SC)=NC1c1ccc(OC)cc1.I (centres unmarked),-4.06
18,CC1CCN(c2ncnc3nc[nH]c23)CC1,-7.2
19,Cc1ccc(S(=O)(=O)c2c(N)n(CCCN(C)C)c3nc4ccccc4nc23)cc1,-59
20,Cn1c(=O)c2c(nc(Sc3ncccn3)n2Cc2ccccc2Cl)n(C)c1=O,-8.1
21,Cc1ccsc1/C=C(\CC(=O)O)c1nc2ccccc2o1,13.1
22,Cc1cc(C)nc(-n2nc(C)cc2NC(=O)c2ccc(F)cc2F)n1,-0.0513
23,Cc1ccc(OCCC(=O)N2CCN(c3ccc(O)cc3)CC2)cc1,-34.7

row,SMILES,"hERG current change (%, negative = inhibition) at 10uM [%]"
1,CCOC(=O)CSc1nc(-c2ccccc2)nc2ccc(C)cc12,13.4
2,COc1ccc(N2C(=O)C(CC(=O)Nc3ccccc3)N(Cc3ccc(OC)c(OC)c3)C2=O)cc1 (centres unmarked),16.7
3,CC(C)Cn1c2c(c(=O)[nH]c1=O)C(C(F)(F)F)(C(F)(F)F)N=C(CCC1CCCCC1)N2,3.98
4,CC(C)C[C@H](NC(=O)C1CC(=O)N(c2ccc3c(c2)OCCO3)C1)C(=O)NC1CCCC1 (some centres unmarked),26.7
5,Cc1cc(OCC(=O)Nc2ccc(F)c(F)c2)nc(C(C)C)n1,15.3
6,CC(C)(C)SCCNS(=O)(=O)c1ccccc1,6.08
7,O=C1CSC(=S)N1/N=C/c1ccc(Cl)c([N+](=O)[O-])c1,7.66
8,CC(=O)Nc1ccc(C(=O)Nc2ccc(S(=O)(=O)N3CCCCC3)cc2)cc1,2.24
9,Cl.Cn1cnc([N+](=O)[O-])c1SCC(=O)NN,15.3
10,CC(=O)c1cn(CC(=O)NCc2cccnc2)c2ccccc12,3.67
11,Cc1sc2ncnc(SC(C)C#N)c2c1C (centres unmarked),19.6
12,Cc1cccc2sc(N(CCCN(C)C)C(=O)c3ccc(C(=O)c4ccccc4)cc3)nc12,-53.2
13,CNC(=O)c1ccccc1NC(=O)c1ccco1,6.37
14,COc1cccc2c1Oc1ncccc1N(C(=O)CCC(=O)NCc1cccc(C)c1)C2,-23.5
15,Cc1ccc(Cn2cc(C(=O)NN)c(=O)c3ccc(F)cc32)cc1,-51.6
16,C=CCNS(=O)(=O)c1ccc2nsnc2c1,5.06
17,CCOC(=O)N1CCN(C2CC(=O)N(c3ccc(Cl)c(Cl)c3)C2=O)CC1 (centres unmarked),-9.59
18,NC(=S)N=Nc1c(O)[nH]c2c(Br)cc(Br)cc12,13
19,O=C(O)CCn1c2c(c3ccccc31)CCCC2,25.3
20,Cc1nn(C)cc1C1C2=C(CC(C)(C)CC2=O)N(c2ccccc2)C2=C1C(=O)CC(C)(C)C2,-6.46
21,CC(C)(C)NC(=O)[C@H]1CC[C@H]2[C@@H]3CC[C@H]4NC(=O)C=C[C@]4(C)[C@H]3CC[C@]12C,-7.77
22,C=CCn1c(SCC(=O)c2ccc(Cl)cc2)nnc1-c1ccc2c(c1)OCO2,-37.5
23,COc1ccc(NC(=O)CCNC(C)=O)cc1NS(=O)(=O)c1ccc(F)cc1,0.12

row,SMILES,"hERG current change (%, negative = inhibition) at 10uM [%]"
1,Cc1ccc(-c2csc(NC(=O)Cn3cnc4c3c(=O)n(C)c(=O)n4C)n2)cc1C,-8.92
2,C=CCn1c(CCn2c3ccccc3c3ccccc32)n[nH]c1=S,49.1
3,Cc1cc2oc(=O)cc(CN3CCC(C)CC3)c2c(C)c1Cl,-2.84
4,CCOC(=O)C1(CCOc2ccccc2)CCN(Cc2ccc(C)s2)CC1,-89.8
5,O=C(CSc1ccc(F)cc1)NCCSc1ccccc1,-22.1
6,O=C(CNC(=O)c1cccc(Br)c1)N/N=C/c1ccc2c(c1)OCO2,21.6
7,COc1ccc(-c2csc(NC(=O)c3c(OC)cccc3OC)n2)cc1,7.77
8,CCc1c(O)nc(SCC(=O)N(CC)CC)[nH]c1=O,12
9,Cc1cccc(C)c1OCc1nnc(SCC(=O)Nc2ccc(N3CCOCC3)cc2)o1,17.9
10,Cc1ccccc1NC(=O)CCN1CCN(C/C=C/c2ccccc2)CC1,-78.9
11,COc1cc(NC(=O)CCc2c(C)nn(-c3ccc(N4CCOCC4)nn3)c2C)cc(OC)c1OC,8.82
12,Cc1cc(C)c2nc(SCc3ccc([N+](=O)[O-])cc3)nc(C)c2c1,4.5
13,O=C(Nc1ccc2c(c1)OCCO2)C1CCCN(S(=O)(=O)c2cccc3nsnc23)C1 (centres unmarked),4.93
14,Cc1cc(SCC(=O)Nc2ccccc2)nc(C)n1,2.58
15,COc1ccccc1NS(=O)(=O)c1ccc(Cl)c(NC(=O)c2sc3cc(Cl)ccc3c2Cl)c1,22.1
16,N#Cc1ccccc1CSc1nc2ncc(Br)cc2[nH]1,5.22
17,COc1cc2c(cc1OC)C(COc1ccc([N+](=O)[O-])cc1)NCC2 (centres unmarked),-76.6
18,Cc1cc(C)n(-c2nc3ccccc3c3nc(C)nn23)n1,2.9
19,COc1ccc(OCCC(=O)NCc2ccccc2)cc1,2.89
20,Cc1ccc(CNC(=O)C2CCCN(Cc3cnn(-c4ccccc4)c3-n3cccc3)C2)cc1 (centres unmarked),-65.3
21,CCOC(=O)c1oc2cc(O)ccc2c(=O)c1-c1csc(C)n1,9.39
22,CCOc1ccc(-n2c(C)nc3cc(C(=O)NCc4ccc5c(c4)OCO5)ccc32)cc1,-33.5
23,COCc1cc(=O)n2[nH]cc(-c3ccsc3)c2n1,3.74

row,SMILES,"hERG current change (%, negative = inhibition) at 10uM [%]"
1,COC(=O)C1CCN(CC(=O)N(C)c2c(N)n(Cc3ccccc3)c(=O)[nH]c2=O)CC1,-21.2
2,FC(F)(F)COc1cc(-c2nnc(SCc3ccccc3)n2Cc2ccco2)cc(OCC(F)(F)F)n1,6.57
3,CCc1cc(Cn2nc(-c3ccccc3)cc2C(=O)NCc2cccs2)on1,-16.9
4,O=C(CC1C(=O)NCCN1Cc1ccccc1)NCCCOc1cccnc1 (centres unmarked),12
5,Nc1nnc(Cc2ccccc2)s1,-11.8
6,COc1cccc(Cn2c(NCc3ccco3)nc3c2c(=O)n(C)c(=O)n3C)c1,-22.2
7,O=C(c1ccc(Br)s1)N1CCCC1,-5.86
8,O=C(CCC(=O)c1cccs1)OCc1nnc(-c2ccccc2)o1,-2.42
9,CC(C)(C)SCCNC(=O)/C=C/c1ccc([N+](=O)[O-])cc1,-44.7
10,Cc1cc(F)ccc1NC(=S)NCCc1ccccc1,20.9
11,CCOC(=O)c1c(NC(=O)CCC(=O)O)sc2c1CC(C)(C)OC2,15.7
12,CC(C)Cn1c(C(C)C)nc([N+](=O)[O-])c1Sc1ccc(Cl)cn1,-6.57
13,COc1ccc(CCC(=O)Nc2nc(-c3ccncc3)cs2)cc1,6.7
14,CCCc1[nH][nH]c(=O)c1C(c1cccc(Cl)c1)C(C#N)C#N (centres unmarked),6.29
15,CCCN=C(C)c1c(-c2ccccc2)[nH]n(-c2nc3ccccc3s2)c1=O,-7.79
16,CC(c1ccon1)N(C)C(=O)CCc1nnc(C2(c3ccc(Cl)cc3)CCC2)o1 (centres unmarked),-3.05
17,NC(=O)c1ccc(NCCCN2CCOCC2)c([N+](=O)[O-])c1,1.65
18,CC(NC(=O)COc1ccccc1-c1ccccc1)c1ccccc1 (centres unmarked),-0.046
19,Cc1cc(C)c(S(C)(=O)=O)c(Oc2ccc(C(C)(C)C)cc2)n1,-17.6
20,Cc1cc(Cl)ccc1NC(=O)CN1C(=O)CSc2ccc(S(=O)(=O)N3CCOCC3)cc21,-18.7
